# Several values for one entry are separate records, joined by “and”; a condition that tells them apart may be missing. Equal entries are not always repeated. The full ranking holds about 2,900 compounds; the median of “IRF Lucia reporter activity, fold change vs agonist alone” is about 0.9, and the highest 2% start at about 2.8. Some of the results follow.
# Legend:
# [1] = tested on: RAW-Dual; assay: IRF Lucia reporter activity, fold change vs agonist alone; cytotoxicity flag (confluency mask): not cytotoxic; higher = enhanced IRF activity
# In short: (§1)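 Library stock was pin-tooled at 50 nL into 384-well plates of RAW-Dual macrophages (50,000 cells/well, DMEM), followed 1 h later by a PRR agonist, and the cells were kept at 37 °C, 5% CO2. Supernatant collected after 20 hours was read for IRF by QuantiLuc luminescence and for NF-κB by QuantiBlue absorbance at 620 nm. Reporter activity is fold change over agonist-alone wells, and a well counted as cytotoxic when its IncuCyte confluency was below 70% of agonist controls in both mask sets.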
# [2] = tested on: RAW-Dual; assay: IRF Lucia reporter activity, fold change vs agonist alone; higher = enhanced IRF activity; settings: agonist: MPLA (TLR4) […]
# In short: as §1
# [3] = tested on: RAW-Dual; assay: IRF Lucia reporter activity, fold change vs agonist alone; cytotoxicity flag (confluency mask): cytotoxic (confluency <70% of control); higher = enhanced IRF activity
# In short: as §1
# [4] = agonist: 3'3'-cGAMP (STING) 10 ug/mL
# [5] = library stock concentration (final ~1000-fold dilution): 10 mM, cytotoxicity flag (confluency mask): cytotoxic (confluency <70% of control)
# [6] = library stock concentration (final ~1000-fold dilution): 10 mM, cytotoxicity flag (confluency mask): not cytotoxic
compound,measurement,setting,value
COc1ccc(C2CC(c3ccccc3)=NN2c2ccc(S(N)(=O)=O)cc2)cc1 (stereo unspecified) (library stock concentration (final ~1000-fold dilution): 10 mM),IRF Lucia reporter activity,[1]; [4],1.13
same,IRF Lucia reporter activity,[1]; agonist: LPS (TLR4) 0.1 ug/mL,0.969
O=C(NC1=CC(=O)[C@H]2O[C@H]2[C@H]1O)c1ccccc1O (library stock concentration (final ~1000-fold dilution): 10 mM),IRF Lucia reporter activity,[1]; [4],0.069
same,IRF Lucia reporter activity,[1]; agonist: LPS (TLR4) 0.1 ug/mL,0.415
CCCC(=O)[O-].[Na+],IRF Lucia reporter activity,"[2]; library stock concentration (final ~1000-fold dilution): 10 mM water, cytotoxicity flag (confluency mask): not cytotoxic",1.27
CCCC(=O)[O-].[Na+] (library stock concentration (final ~1000-fold dilution): 10 mM water),IRF Lucia reporter activity,[1]; [4],1.12
same,IRF Lucia reporter activity,[1]; agonist: LPS (TLR4) 0.1 ug/mL,0.83
COCCOc1ccc2c(c1)ncn2-c1ccc2cccc(N3CCC(N)CC3)c2n1 (library stock concentration (final ~1000-fold dilution): 10 mM),IRF Lucia reporter activity,[3]; [4],0.0214
same,IRF Lucia reporter activity,[3]; agonist: LPS (TLR4) 0.1 ug/mL,0.0272
COCCOc1ccc2c(c1)ncn2-c1ccc2cccc(N3CCC(N)CC3)c2n1,IRF Lucia reporter activity,[2]; [5],0.0201
CCCS(=O)(=O)NC1CC(N(C)c2ncnc3[nH]ccc23)C1 (stereo unspecified) (library stock concentration (final ~1000-fold dilution): 10 mM),IRF Lucia reporter activity,[1]; [4],0.331
same,IRF Lucia reporter activity,[1]; agonist: LPS (TLR4) 0.1 ug/mL,0.508
Cc1cc(Nc2cc(N3CCN(C)CC3)nc(/C=C/c3ccccc3)n2)n[nH]1 (library stock concentration (final ~1000-fold dilution): 10 mM),IRF Lucia reporter activity,[3]; [4],0.0105
same,IRF Lucia reporter activity,[3]; agonist: LPS (TLR4) 0.1 ug/mL,0.0236
Cc1cc(Nc2cc(N3CCN(C)CC3)nc(/C=C/c3ccccc3)n2)n[nH]1,IRF Lucia reporter activity,[2]; [5],0.0174
Cc1nc(C#Cc2ccnc(Cl)c2)c(C)n1-c1ccc(OC(F)(F)F)cc1 (library stock concentration (final ~1000-fold dilution): 10 mM),IRF Lucia reporter activity,[3]; [4],0.355
same,IRF Lucia reporter activity,[3]; agonist: LPS (TLR4) 0.1 ug/mL,0.642
Cc1nc(C#Cc2ccnc(Cl)c2)c(C)n1-c1ccc(OC(F)(F)F)cc1,IRF Lucia reporter activity,[2]; [5],1.3
CN(C)c1cccc(-c2c3c(=O)n(-c4ccccc4Cl)[nH]c3cc(=O)n2C)c1 (library stock concentration (final ~1000-fold dilution): 10 mM),IRF Lucia reporter activity,[1]; [4],0.903
same,IRF Lucia reporter activity,[1]; agonist: LPS (TLR4) 0.1 ug/mL,0.593
CN(C)c1cccc(-c2c3c(=O)n(-c4ccccc4Cl)[nH]c3cc(=O)n2C)c1,IRF Lucia reporter activity,[2]; [6],1.05
CCCCOc1nc(N)c2c(n1)N(Cc1cccc(CN3CCCC3)c1)CC(=O)N2 (library stock concentration (final ~1000-fold dilution): 1 mM),IRF Lucia reporter activity,[1]; [4],1.33
same,IRF Lucia reporter activity,[1]; agonist: LPS (TLR4) 0.1 ug/mL,1.29
COC(=O)C1=C(C)NC(C)=C(C(=O)OCCN(C)Cc2ccccc2)C1c1cccc([N+](=O)[O-])c1 (stereo unspecified),IRF Lucia reporter activity,[2]; [6],1.14
COC(=O)C1=C(C)NC(C)=C(C(=O)OCCN(C)Cc2ccccc2)C1c1cccc([N+](=O)[O-])c1 (stereo unspecified) (library stock concentration (final ~1000-fold dilution): 10 mM),IRF Lucia reporter activity,[1]; [4],0.307
same,IRF Lucia reporter activity,[1]; agonist: LPS (TLR4) 0.1 ug/mL,1.51
CC(=O)SC1CC2=CC(=O)CCC2(C)C2CCC3(C)C(CCC34CCC(=O)O4)C12 (stereo unspecified),IRF Lucia reporter activity,[2]; [6],0.825
CC(=O)SC1CC2=CC(=O)CCC2(C)C2CCC3(C)C(CCC34CCC(=O)O4)C12 (stereo unspecified) (library stock concentration (final ~1000-fold dilution): 10 mM),IRF Lucia reporter activity,[1]; [4],0.862
same,IRF Lucia reporter activity,[1]; agonist: LPS (TLR4) 0.1 ug/mL,0.791
CN(C)C(=O)COC(=O)Cc1ccc(OC(=O)c2ccc(NC(=N)N)cc2)cc1.CS(=O)(=O)O,IRF Lucia reporter activity,[2]; [6],1.1
CN(C)C(=O)COC(=O)Cc1ccc(OC(=O)c2ccc(NC(=N)N)cc2)cc1.CS(=O)(=O)O (library stock concentration (final ~1000-fold dilution): 10 mM),IRF Lucia reporter activity,[1]; [4],1.03
same,IRF Lucia reporter activity,[1]; agonist: LPS (TLR4) 0.1 ug/mL,1.16
O=c1cc(-c2ccc(O)cc2)oc2cc(O)ccc12 (library stock concentration (final ~1000-fold dilution): 10 mM),IRF Lucia reporter activity,[1]; [4],0.732
same,IRF Lucia reporter activity,[1]; agonist: LPS (TLR4) 0.1 ug/mL,0.812
CN(C/C=C/C#CC(C)(C)C)Cc1cccc2ccccc12.Cl,IRF Lucia reporter activity,[2]; [6],1.21
CN(C/C=C/C#CC(C)(C)C)Cc1cccc2ccccc12.Cl (library stock concentration (final ~1000-fold dilution): 10 mM),IRF Lucia reporter activity,[1]; [4],1.25
same,IRF Lucia reporter activity,[1]; agonist: LPS (TLR4) 0.1 ug/mL,1.2
CC1(C)CNc2cc(NC(=O)c3cccnc3NCc3ccncc3)ccc21 (library stock concentration (final ~1000-fold dilution): 10 mM),IRF Lucia reporter activity,[1]; agonist: LPS (TLR4) 0.1 ug/mL,0.645 and 0.698
CC(=O)Oc1cc2c(cc1Cl)C(c1ccccc1C(=O)O)c1cc(Cl)c(OC(C)=O)cc1O2 (library stock concentration (final ~1000-fold dilution): 10 mM),IRF Lucia reporter activity,[1]; [4],0.728
same,IRF Lucia reporter activity,[1]; agonist: LPS (TLR4) 0.1 ug/mL,1.15
COCCn1c2c([n+](Cc3cnccn3)c1C)C(=O)c1ccccc1C2=O,IRF Lucia reporter activity,[2]; [5],0.0332

# — the supplement of paper PMC10037445
